Consider two substances from US7326684B2, “Peptides for enhancing resistance to microbial infections” (priority 2002, dated 2008).

The test system of this test is S. typhimurium. It counts as cell-based, Salmonella typhimurium.

As to “H-VKGFY-OH [Pentarphin, Val-Lys-Gly-Phe-Tyr]”, the “Influence on viability and growth of S. typhimurium” value is “do not influence viability and growth”.

As to “cyclo(Val-Lys-Gly-Phe-Tyr) (VKGFY; cyclic; printed: Val-Lys-Gly-Phe-Tyr) [Cyclopentarphin]”, the “Influence on viability and growth of S. typhimurium” value is “do not influence viability and growth”.
